Out of some 43,000 compounds screened, about 200 (0.47%) were called active. Not shown: some 12% with an inconclusive outcome. Calls follow the shape of the dose curve; as a rule, active = well fitted cell-killing curve with a large enough effect; inconclusive = small, poorly fitted or top-dose-only effect, or effect the other way; inactive = flat fitted curve, though single readings scatter. This is one part of the list.
Assay: Cell viability qHTS assay in S16 Pmp22-F2sN cells; also: nearly all actives have a fitted effect of over 65% in size
Settings: S16 Pmp22-F2sN Schwann cells (luciferase reporters placed in the Pmp22 gene) viability, CellTiter-Glo, 24 h; series mostly up to 57.5 µM; activity change, negative = cytotoxicity: at the top concentration
Method in brief: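 Rat S16 Schwann reporter line, 24 h treatment with library compounds delivered at 23 nL per well. Cell viability by CellTiter-Glo luminescence.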
% is scaled to controls: 0 for no effect and ±100 for the full control effect.

SMILES | activity change, negative = cytotoxicity
O=C(CSc1nc(=O)[nH]c2c1CCCC2)Nc1ccccc1C(F)(F)F | inactive: 1.82%
Cc1nn2c(=O)cc(COC(=O)c3cccc(NC(=O)c4cccs4)c3)nc2s1 | inactive: 2.54%
Cc1cccc(N(C)S(=O)(=O)c2cc3c(cc2Cl)NC(=O)CO3)c1 | inactive: -1.82%
CCOc1ccc(NS(=O)(=O)c2ccc3[nH]c4c(c3c2)CCCC4)cc1 | inactive: -16.4%
CCCSc1ncc(Cl)c(C(=O)Nc2sc3c(c2C(=O)NCCOC)CCCC3)n1 | inactive: 1.52%
Cc1c(Cl)cccc1NC(=O)CSc1nc(=O)n(Cc2ccccn2)c2c1CCC2 | inactive: -10.4%
COc1ccc(-c2cn3nc(N4CCC(C(=O)Nc5cccc(C)c5C)CC4)sc3n2)cc1 | inactive: 1.3%
COc1ccc(N(CC(=O)N2CCN(c3cccc(C)c3C)CC2)S(=O)(=O)c2c(C)noc2C)cc1 | inactive: 2.64%
Cc1ccc(C(C)C)c(OCC(=O)N2CCC(c3nc4ccccc4o3)CC2)c1 | inactive: -11.3%
COc1ccc(C(=O)N(Cc2ccc(C(C)C)cc2)C2CCS(=O)(=O)C2)cc1 (configuration not stated) | inactive: -11.4%
Cc1nc2nc(SCC(=O)NCCc3ccccc3)nn2c(C)c1Cc1c(F)cccc1Cl | inactive: 25.2%
Cc1ccccc1CNS(=O)(=O)c1csc(C(N)=O)c1 | inactive: 13.9%
Cc1nn(-c2ccc(N3CCOCC3)nn2)c(C)c1CCC(=O)NCc1ccc(OC(C)C)cc1 | inactive: -0.448%
Cc1c(C2=CCN(S(=O)(=O)c3ccc(CC(C)C)cc3)CC2)c2ccccc2n1CC(=O)N1CCCC1 | inactive: 2.61%
CCn1c(SCCOc2ccccc2F)nc2ccccc21 | inactive: 3.49%
Cn1c(=O)nc2n(-c3ccc(Cl)c(Cl)c3)c3cc(Cl)ccc3cc-2c1=O | inactive: -1.15%
O=C(Nc1c(C(=O)Nc2ccc(F)cc2)oc2ccccc12)c1ccccc1F | inactive: 10.1%
Cc1ccc(C)c(NC(=O)CN2C(=O)COc3ccc(Cl)cc32)c1 | inactive: 0.0443%
COc1ccccc1CNC(=O)C1CCCN(c2nnc(-n3c(C)ccc3C)s2)C1 (configuration not stated) | inactive: 0.627%
CC1=C(C(=O)OCC2CCCCC2)C(c2ccccc2F)CC(=O)N1 (configuration not stated) | inactive: 29.3%
CCOc1ccc(NC(=O)NCCc2c(C)nn(C)c2C)cc1 | inactive: -10.3%

SMILES | activity change, negative = cytotoxicity
CC1CCc2nn(CC(=O)Nc3ccccc3Cl)cc2C1 (configuration not stated) | inactive: 0.705%
CCc1ccc(-c2nc3c(c(SCc4ccccc4F)n2)Cc2c(CO)cnc(C)c2O3)cc1 | inactive: 6.44%
Cc1cccc(N2CCN(C(=O)CN3CCSc4ccccc43)CC2C)c1 (configuration not stated) | inactive: 2.2%
COc1ccc(NC(=O)C(=O)NCC(c2cccnc2)N2CCc3ccccc32)cc1OC (configuration not stated) | inactive: -24.8%
CN(Cc1ccccc1)S(=O)(=O)c1ccc(-c2cnc(C3CC3)o2)cc1 | inactive: 5.69%
Cc1ccc(NC(=O)C(C)Sc2nc(=O)cc(N)n2-c2cccc(C)c2)cc1 (configuration not stated) | inactive: 1.62%
COc1cccc(S(=O)(=O)N2CCN(Cc3ccc4c(c3)OCO4)CC2)c1 | inactive: 8.65%
O=c1c2oc3ccccc3c2n(Cc2ccccc2Cl)c(=O)n1Cc1ccco1 | inactive: 3.47%
COc1ccc(CN(Cc2ccco2)c2cnc(S(C)(=O)=O)nc2C(=O)Nc2ccc(C)c(Cl)c2)cc1 | inactive: 6.99%
CC(C)Oc1ccc(C(=O)N2CCN(CCc3ccccn3)CC2)cc1 | inactive: 6.84%
Cc1ccc(NC(=O)c2cnn3c(C(F)F)cc(-c4ccccc4)nc23)cc1F | inactive: 20.1%
CCCn1c(SCc2nc(-c3ccc(OC)c(OC)c3)no2)nnc1-c1ccccc1 | inactive: -23.6%
CCOc1ccc(-c2nc(Cn3c(=O)cc(-c4ccccc4)c4c(C)nn(C)c43)c(C)o2)cc1 | inactive: 5.69%
CCOc1ccc(NC(=O)CN(c2ccc(CC)cc2)S(=O)(=O)c2c(C)noc2C)cc1 | inactive: -1.75%
Cc1ccc(CNC(=O)C2CCN(S(=O)(=O)c3c(C)noc3/C=C/c3cccs3)CC2)cc1 | inactive: 13.3%
Cc1sc2ncn(CC(=O)N3CCN(c4ccc(F)cc4)CC3)c(=O)c2c1S(=O)(=O)N1CCC(C)CC1 | inactive: -0.68%
Cc1ccc(CNC(=O)Cn2c(=O)cc(C(F)(F)F)c3c(C)nn(C)c32)cc1 | inactive: 4.43%
COC(=O)C1=C(c2ccccc2)c2ccccc2S(=O)(=O)N1CC(=O)Nc1ccc(F)c(F)c1 | inactive: -0.494%
CC(C)Oc1ccc(CNC(=O)c2ccc(CN3CC(=O)N4CCCCC4C3=O)cc2)cc1 (configuration not stated) | inactive: 0.577%
Oc1c(C(c2ccc(Cl)cc2Cl)N2CCN(c3ccccc3)CC2)sc2nc(-c3ccco3)nn12 (configuration not stated) | inactive: 9.65%
O=C(NCc1cccc(Cl)c1)c1ccc(NC(=O)N2CC3CCCN3c3ccccc32)cc1 (configuration not stated) | inactive: -9.82%

SMILES | activity change, negative = cytotoxicity
CSc1ncc(C(=O)NCc2cccc(F)c2)c(-c2ccccc2)n1 | inactive: 11.8%
O=C(CCS(=O)(=O)c1cc2c(cc1Cl)NC(=O)CO2)NCc1ccccc1Cl | inactive: 10.7%
COc1ccc(NC(=O)CN2CCCN(Cc3ccc(Cl)cc3)S2(=O)=O)cc1Cl | inactive: 8.38%
COc1ccc(CNC(=O)c2cnc3sc(N4CCCCCC4)nn3c2=O)cc1 | inactive: -2.13%
CCOC(=O)c1cnc2ccccc2c1NCCc1ccc(OC)c(OC)c1 | inactive: -8.74%
CCN1c2ccccc2-c2nc(SCC(=O)NCc3ccc(C)cc3)ncc2S1(=O)=O | inactive: 7.46%
CCOC(=O)c1ccc(NC(=O)Cn2cc(C(=O)c3ccc(CC)cc3)c(=O)c3ccc(C)nc32)cc1 | inactive: -15.9%
O=C(Nc1ccc(Br)cc1F)N1CCC(CN2CCCC2)CC1 | inactive: -0.254%
Cc1nn(C)c2c1c(C(F)(F)F)cc(=O)n2C(C)C(=O)NCc1ccc(Cl)cc1 (configuration not stated) | inactive: 13%
CC1=C(C(=O)OCc2ccccc2)C(c2cccc(Cl)c2Cl)CC(=O)N1 (configuration not stated) | inactive: -0.922%
Cc1cccc(CNC(=O)CSCc2cnn(-c3ccccc3)c2-n2cccc2)c1 | inactive: -1.36%
CCOC(=O)c1ccc(NS(=O)(=O)c2cc(-c3onc(C)c3C)ccc2C)cc1 | inactive: -8.7%
Cc1[nH]c2ccccc2c1C1N2CC3(C)CN1CC(C)(C2)C3=O (configuration not stated) | inactive: -7.22%
CC1=C(c2ccc(C)cc2)S(=O)(=O)NC1=NCc1cccc(F)c1 | inactive: 3.85%
COc1cc(OC)c(C2Nc3c(C)cccc3-c3cc(C)nn32)cc1OC (configuration not stated) | inactive: 3.03%
COc1ccc(OC)c(S(=O)(=O)NCc2cccn2Cc2cccc(C)c2)c1 | inactive: -4.6%
CC1=C(C(=O)Nc2cccnc2)C(c2ccc(Cl)cc2)n2nc(-c3ccccc3)nc2N1 (configuration not stated) | inactive: 17.5%
Cc1ccc(C)c(NC(=O)CSc2c3c(nc4ccc(Cl)cc24)CCCC3)c1 | inactive: 1.18%
COc1cn(CC(=O)Nc2cccc(C)c2C)c(CN2CCCCC2)cc1=O | inactive: -2.31%
Cn1c(=O)c2c(nc3n(-c4ccc(O)cc4)c(-c4ccc(Br)cc4)cn23)n(C)c1=O | inactive: -5.96%
